{
  "source": "PubChem BioAssay AID2675",
  "about": "(National Center for Advancing Translational Sciences (NCATS), 2010)",
  "note": "In all, about 280,000 compounds went through this assay and about 100 (0.036%) were called active. This list was built around the results that the source calls inconclusive (neither active nor inactive); the mix of calls is not that of the screen. Calls follow the shape of the dose curve; as a rule, active = well fitted inhibition curve with a large enough effect in the signal ratio, with a control signal flat (not every such curve was filed as active); inconclusive = small, poorly fitted or top-dose-only effect, or effect the other way, or a change in a side signal; inactive = no such curve, though single readings can be large or run the other way; the % refers to the signal ratio. Where the call is inconclusive, the potency comes from a doubtful curve fit. “Side channel” marks fits to a control or component signal instead of the main read-out. % is scaled to controls: 0 for no effect and ±100 for the full control effect; potency is read from the fitted curve at half-maximal effect; tags tell the direction and shape of the fitted curve or compound fluorescence and quenching.",
  "data": [
    {"molecular_target": "Muscleblind-like protein 1 (Homo sapiens) (UniProt Q9NR56)", "sequence (Q9NR56 whole entry, looked up)": "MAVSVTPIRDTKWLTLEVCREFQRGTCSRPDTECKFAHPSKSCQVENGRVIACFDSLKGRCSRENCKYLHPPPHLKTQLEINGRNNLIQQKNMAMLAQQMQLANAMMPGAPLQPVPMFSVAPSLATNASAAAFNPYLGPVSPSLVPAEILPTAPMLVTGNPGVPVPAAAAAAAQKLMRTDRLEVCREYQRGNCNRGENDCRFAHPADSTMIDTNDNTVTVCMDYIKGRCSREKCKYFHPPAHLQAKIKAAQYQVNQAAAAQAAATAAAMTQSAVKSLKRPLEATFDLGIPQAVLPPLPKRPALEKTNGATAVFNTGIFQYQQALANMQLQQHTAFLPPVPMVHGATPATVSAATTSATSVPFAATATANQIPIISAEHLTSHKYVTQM", "experiment": "qHTS Assay for Inhibitors of MBNL1-poly(CUG) RNA binding", "settings": "TR-FRET MBNL1-His/biotin-(CUG)12 binding, 665/545 ratio; activity change, negative = inhibition: at 57.5 µM (top of the series)", "outline": "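Inhibition of protein-RNA binding appears as loss of TR-FRET between terbium anti-His antibody on MBNL1-His and streptavidin-XL665 on biotin-(CUG)12. Activity is normalized to buffer-only and uninhibited-complex controls.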", "values": [
      {"smiles": "C(=N\\Nc1nncn1/N=C/c1ccco1)/c1ccco1", "Potency": "inconclusive: 14.1 µM [quencher, side channel, partial curve]"},
      {"smiles": "O=C(c1cc2cc([N+](=O)[O-])ccc2oc1=O)N1CCN(C2CCCCC2)CC1", "Potency": "inconclusive: 12.6 µM [quencher, side channel, partial curve]"},
      {"smiles": "C[C@@H]1O[C@@H](OC[C@H]2O[C@@H](Oc3c(-c4ccc(O)c(O)c4)oc4cc(O)cc(O)c4c3=O)[C@H](O)[C@@H](O)[C@@H]2O)[C@H](O)[C@H](O)[C@H]1O", "Potency": "inconclusive: 15.8 µM [quencher, side channel, partial curve]"},
      {"smiles": "COc1ccc(C(C(=O)NCC2CCCO2)N(C(=O)c2snc(C(N)=O)c2N)c2ccccc2)cc1OC", "note": "(centres undefined)", "Potency": "inconclusive: 44.7 µM [quencher, side channel, partial curve, poor fit]"},
      {"smiles": "CC(NS(=O)(=O)c1ccc2c(c1)C(=O)c1cc(S(=O)(=O)NC(C)C(=O)O)ccc1-2)C(=O)O", "note": "(centres undefined)", "Potency": "inconclusive: 14.1 µM [quencher, partial curve]"},
      {"smiles": "O=C(Nc1cccc2ccccc12)c1ccc([N+](=O)[O-])s1", "Potency": "inconclusive: 0.316 µM [quencher, side channel, full curve, poor fit]"},
      {"smiles": "Cc1c(C(=O)Nc2nc3ccccc3[nH]2)oc2ccccc12", "activity change, negative = inhibition": "inactive: 10.5%"},
      {"smiles": "O=C(CSc1nnc2c(n1)[nH]c1ccccc12)Nc1nncs1", "Potency": "inconclusive: 11.2 µM [quencher, side channel, partial curve]"},
      {"smiles": "COC(=O)C1=C(C)N=C2SC(C#N)=C(N)N2C1c1ccc(OC)cc1", "note": "(centres undefined)", "Potency": "inconclusive: 0.251 µM [quencher, side channel, full curve]"},
      {"smiles": "CN1CCN(C(c2ccc(C(F)(F)F)cc2)c2ccc3cccnc3c2O)CC1", "note": "(centres undefined)", "activity change, negative = inhibition": "inactive: 7.42%"},
      {"smiles": "O=[N+]([O-])c1ccc(NC(=S)N2CCN(c3ccccc3)CC2)cc1", "Potency": "inconclusive: 0.1 µM [fluorescent, side channel, full curve]"},
      {"smiles": "O=C(O)c1ccc(Nc2nc(-c3ccc([N+](=O)[O-])cc3)nc3ccccc23)cc1", "Potency": "inconclusive: 7.08 µM [quencher, side channel, partial curve]"},
      {"smiles": "O=[N+]([O-])c1ccc(OCCn2cnc3ccccc32)cc1", "Potency": "inconclusive: 31.6 µM [quencher, partial curve]"},
      {"smiles": "COC(=O)c1ccc(N2C(=O)c3ccc(OC)c(OC)c3C2=O)cc1", "Potency": "inconclusive: 3.16 µM [quencher, side channel, partial curve]"},
      {"smiles": "NC1=NC(=O)/C(=C/c2ccsc2)S1", "Potency": "inconclusive: 17.8 µM [quencher, side channel, partial curve]"},
      {"smiles": "CCOc1ccc(S(=O)(=O)Nc2cc(Cl)ccc2O)cc1", "activity change, negative = inhibition": "inactive: 0.0057%"},
      {"smiles": "COc1ccc(CCn2c(=N)c(C(=O)NC3CCCC3)cc3c(=O)n4ccccc4nc32)cc1", "Potency": "inconclusive: 3.16 µM [quencher, side channel, full curve]"},
      {"smiles": "O=C(NCCOc1ccccc1F)c1cc([N+](=O)[O-])ccc1N1CCOCC1", "Potency": "inconclusive: 25.1 µM [quencher, side channel, partial curve]"},
      {"smiles": "CC(NC(=O)C(C)N1C(=O)c2cccc([N+](=O)[O-])c2C1=O)c1ccccc1", "note": "(centres undefined)", "Potency": "inconclusive: 12.6 µM [quencher, side channel, partial curve]"},
      {"smiles": "Cc1ccc2cc(CN(CCCO)S(=O)(=O)c3cccc4nsnc34)c(=O)[nH]c2c1C", "Potency": "inconclusive: 14.1 µM [quencher, side channel, partial curve]"},
      {"smiles": "COc1cccc(/C=C2\\NC(=O)NC2=O)c1O", "Potency": "inconclusive: 12.6 µM [quencher, side channel, partial curve]"},
      {"smiles": "Cc1cccc(OCC(=O)Nc2ccc3c(c2)nc(CN2CCCCC2)n3C)c1", "activity change, negative = inhibition": "inactive: -5.99%"},
      {"smiles": "O=C(Cc1ccccc1)NNC(=S)Nc1ccccc1", "activity change, negative = inhibition": "inactive: -2.28%"},
      {"smiles": "CCN(CC)C(=O)COc1ccc2c(-c3ccc(OC)cc3)cc(=O)oc2c1", "Potency": "inconclusive: 14.1 µM [quencher, side channel, partial curve]"},
      {"smiles": "CC(NC(=S)Nc1ccc(Cl)cc1)C(c1ccccc1)N1CCOCC1", "note": "(centres undefined)", "activity change, negative = inhibition": "inactive: -12.4%"},
      {"smiles": "CN1CCN(c2cc(-c3ccccc3)nc3cc(-c4ccc(F)cc4)nn23)CC1", "activity change, negative = inhibition": "inactive: 3.51%"},
      {"smiles": "CCOc1ccc(NC(=O)CN2CC(c3ccccc3)CC2=O)cc1", "note": "(centres undefined)", "Potency": "inconclusive: 0.891 µM [quencher, side channel, single point]"},
      {"smiles": "Cc1ccc(NC(=O)COC(=O)c2ccc([N+](=O)[O-])o2)cc1S(=O)(=O)N1CCCCC1", "Potency": "inconclusive: 39.8 µM [quencher, side channel, partial curve]"},
      {"smiles": "COC(=O)c1ccc(C2C(C#N)=C(N)Oc3cc(C)n(C)c(=O)c32)cc1", "note": "(centres undefined)", "Potency": "inconclusive: 39.8 µM [quencher, side channel, single point]"},
      {"smiles": "Cc1ccc(NC(=S)Nc2ccccn2)c(C)c1", "activity change, negative = inhibition": "inactive: 7.41%"},
      {"smiles": "Cc1ccc(CSc2nnc(CC(=O)Nc3ccc(C)cc3)n2C)cc1", "activity change, negative = inhibition": "inactive: -6.47%"},
      {"smiles": "CC1(C)CC(N=c2cc(-c3ccccc3)oc3ccc(Cl)cc23)CC(C)(C)N1", "Potency": "inconclusive: 17.8 µM [quencher, side channel, partial curve]"},
      {"smiles": "CCOc1ccc2noc3c2c1C(=O)c1ccccc1-3", "Potency": "inconclusive: 2.82 µM [quencher, side channel, full curve]"},
      {"smiles": "Clc1cccc(-c2nc3nc4ccccc4nc3n2Cc2ccco2)c1", "Potency": "inconclusive: 28.2 µM [quencher, partial curve]"},
      {"smiles": "OC(COc1cccc2ccccc12)CN1CCN(c2ccccc2)CC1", "note": "(centres undefined)", "activity change, negative = inhibition": "inactive: -2.96%"},
      {"smiles": "Cc1c(Cl)cccc1-c1ccc(/C=N/n2cnnc2)o1", "Potency": "inconclusive: 28.2 µM [quencher, side channel, partial curve]"},
      {"smiles": "O=C(CNC(=O)c1ccc2c(c1)OCCO2)N/N=C/c1cccc(Br)c1", "activity change, negative = inhibition": "inactive: -7.81%"},
      {"smiles": "Cc1cc(C)nc(NC(=O)c2cccc([N+](=O)[O-])c2)c1", "Potency": "inconclusive: 14.1 µM [quencher, side channel, partial curve]"},
      {"smiles": "N#CC(c1ccc(Cl)cc1)c1ccc2c(C(F)(F)F)cc(C(F)(F)F)nc2n1", "note": "(centres undefined)", "Potency": "inconclusive: 15.8 µM [quencher, side channel, partial curve]"}
    ]}
  ]
}
